Experimental data taken from paper PMC5868729 (Angewandte Chemie (International ed. in English), 2015).

Experiments:
[1] = system: p53 activation in T22 cell reporter assay; test: p53 reporter assay in T22 cells, purified/pre-stapled peptides and controls
T22 cells = test: uptake by confocal microscopy in T22 cells; type: cell-based; conditions: live T22 cells, TAMRA-E1 at 20 μM (Figure 5c)
MDM2 = MDM2 (Homo sapiens, UniProt Q00987); test: thermal shift in OCI/AML-2 cell lysate; type: binding; conditions: OCI/AML-2 lysate, Figure 5b
Sequence of UniProt Q00987 (Q00987 whole entry): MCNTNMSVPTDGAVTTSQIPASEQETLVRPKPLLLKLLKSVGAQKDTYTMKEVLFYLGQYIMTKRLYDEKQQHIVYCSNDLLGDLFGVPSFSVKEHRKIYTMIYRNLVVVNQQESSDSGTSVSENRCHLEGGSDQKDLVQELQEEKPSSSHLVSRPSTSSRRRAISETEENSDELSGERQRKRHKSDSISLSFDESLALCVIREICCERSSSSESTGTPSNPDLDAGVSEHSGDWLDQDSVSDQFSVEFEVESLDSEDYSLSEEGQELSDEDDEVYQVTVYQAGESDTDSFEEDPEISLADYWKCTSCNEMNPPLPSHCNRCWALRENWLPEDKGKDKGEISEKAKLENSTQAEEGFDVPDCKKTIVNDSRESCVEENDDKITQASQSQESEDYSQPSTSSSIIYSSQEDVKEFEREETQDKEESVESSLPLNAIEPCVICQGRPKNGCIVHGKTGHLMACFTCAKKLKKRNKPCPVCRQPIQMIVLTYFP

## CC(=O)N[C@@H](CCC(=O)O)C(=O)N[C@H](C(=O)N[C@@H](Cc1ccccc1)C(=O)N[C@H]1CCCn2nnc3c2-c2ccccc2-c2nnn(c2-c2ccccc2-3)CCC[C@@H](C(=O)N[C@@H](CCC(=O)O)C(=O)N[C@@H](CC(N)=O)C(N)=O)NC(=O)[C@H](CC(C)C)NC(=O)[C@H](CC(C)C)NC(=O)[C@H](CCCNC(=N)N)NC(=O)[C@H](Cc2c[nH]c3ccccc23)NC(=O)[C@H](CC(C)C)NC(=O)[C@H](CC(=O)O)NC1=O)[C@@H](C)O [A1]
[1]; pure stapled peptide, up to 100 μM, fold activation over 1% DMSO
  activation of p53 in T22 cell reporter assay: did not induce activation of p53

## CC(=O)N[C@@H](CC(C)C)C(=O)N[C@H](C(=O)N[C@@H](Cc1ccccc1)C(=O)N[C@H]1CCCn2nnc3c2-c2ccccc2-c2nnn(c2-c2ccccc2-3)CCC[C@@H](C(=O)N[C@@H](CO)C(=O)N[C@@H](C)C(=O)N[C@@H](C)C(N)=O)NC(=O)[C@H](CC(C)C)NC(=O)[C@H](CCC(N)=O)NC(=O)[C@H](C)NC(=O)[C@H](Cc2c[nH]c3ccccc23)NC(=O)[C@H](Cc2ccc(O)cc2)NC(=O)[C@H](CCC(=O)O)NC1=O)[C@@H](C)O [E1]
[1]; isolated stapled peptides in reporter assay, Figure 3b, Figure S11.2.1
  p53 activation by purified pre-stapled peptides, activity ranking: greatest response
T22 cells
  cellular uptake: observed
MDM2
  stabilization of MDM2 in thermal shift: increased stabilization of MDM2
